# Assay results taken from PubChem BioAssay AID938 (National Center for Advancing Translational Sciences (NCATS), 2007).
# The campaign covered roughly 73,000 compounds. About 1,800 (2.5%) were called active. The shares of active, inactive and inconclusive entries below differ from those in the screen. The call rests on the fitted dose curve; in most records, active means well fitted activation curve with a large enough effect; inconclusive means small, poorly fitted or top-dose-only effect; inactive means no such curve, though single readings can be large or run the other way. No potency is given beside an inconclusive call; the fits are too rough.
# Test: qHTS Assay for Agonists of the Thyroid Stimulating Hormone Receptor: Activators of Intracellular cAMP Concentrations in Parental HEK 293; further: nearly all actives have a fitted effect of over 55% in size; on activation: % of control where 0% means no effect
# Details: parental HEK293 CNG cAMP sensor, membrane potential fluorescence; activation: at 57.1 µM (top of the series) unless noted
# Outline: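 Counterscreen for endogenous-receptor signalling: CNG-channel HEK 293 cells report cAMP rise by membrane depolarization. After 60 min dye equilibration with 100 uM RO 20-1724, compounds incubated 30 min before bottom-read fluorescence at 590 nm.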
# Potency means the concentration at half of the fitted maximal effect; tags describe the fitted curve by direction and shape.
SMILES,Potency,activation
O=C1C2C3C=CC(C3)C2C(=O)N1Cc1ccccc1 (centres undefined),"inconclusive [activator, single point]",
COc1ccc2c(c1)c(=O)c(Br)c(C)n2Cc1ccccc1,active: 31.6 µM,
O=C(c1ccc(F)cc1)N1CCN(c2ncccn2)CC1,inactive,
C=CCOC(=O)C1C(=O)CC(C)(O)C(C(=O)OCC=C)C1c1ccc(OCC)cc1 (centres undefined),"inconclusive [activator, partial curve]",
O=c1n(Cc2cc3c(cc2Cl)OCO3)c(=O)n2n1CC[C@H]1/C(=N\OCc3ccccc3)[C@H]3O[C@@H]3[C@@H](O)[C@@H]12,,inactive: 0.138% [at 11.4 µM]
CCOc1cc(S(=O)(=O)NC2CCCCCC2)ccc1F,"inconclusive [activator, single point]",
O=C(Nc1nnc(-c2ccccc2Cl)o1)c1ccco1,"inconclusive [activator, single point]",
CCCCN(C)C(=O)C1CCN(C/C(C)=C/c2ccccc2)CC1,"inconclusive [activator, full curve]",
CCOc1ccccc1-n1c(COc2ccccc2)nnc1SCC(N)=O,"inconclusive [activator, single point]",
CCOc1cc(-c2c(C#N)c(N)nc3c2CCCC3C)ccc1O (centres undefined),"inconclusive [activator, partial curve]",
CCOC(=O)c1c(NC(=O)CSc2nnnn2C)sc(CC)c1C,"inconclusive [activator, partial curve]",
COc1ccc2[nH]cc(C(=O)CN3CCCCC3C)c2c1 (centres undefined),"inconclusive [activator, single point]",
O=C(c1csc2c1CCCC2)n1cccn1,inactive,
COc1ccc(-c2nc(C(=O)N3CCN(C)CC3)sc2-c2ccc(OC)cc2)cc1,"inconclusive [activator, partial curve]",
Cc1ccccc1OCC(=O)Nc1ccccc1N1CCOCC1,active: 25.1 µM,
Cc1ccc(CNn2cnnc2SCC(=O)NC(C)(C)C)cc1,"inconclusive [activator, single point]",
CNc1ncnc2ccc(-c3ccc4c(c3)OCO4)cc12,inactive,
C=CCn1c(SCC(=O)Nc2ccccc2OC)nnc1-c1ccco1,inactive,
COc1c(O)cc2c(c1O)[C@@H]1O[C@@H](CO)[C@@H](O)[C@@H](O)[C@@H]1OC2=O,"inconclusive [activator, single point]",
CCOc1ccccc1NC(=O)CN(Cc1ccccc1)S(C)(=O)=O,"inconclusive [activator, single point]",
CCOC(=O)N1CCN(C(=O)CSCC(=O)N=c2sc3cc(OC)ccc3n2C)CC1,"inconclusive [activator, single point]",
O=C(O)CCCn1nc(-c2ccccc2)c2ccccc21,active: 0.158 µM,

SMILES,Potency,activation
CN1CCN(C2=C(Cl)C(=O)N(c3cccc(Cl)c3)C2=O)CC1,"inconclusive [activator, single point]",
COC(=O)c1c(-c2cccs2)csc1NC(=O)c1cccnc1,,inconclusive: 41.8% [activator]
CN(CCO)C(=O)CCC(=O)Nc1ccc(S(N)(=O)=O)cc1,inactive,
Cc1oc(-c2ccccc2F)nc1CSCC(=O)NCc1ccc2c(c1)OCO2,"inconclusive [activator, single point]",
Cn1c(=O)n2n(c1=O)[C@H]1[C@H](O)[C@H]3O[C@@H]3/C(=N/OC[C@@H](O)COCc3ccco3)[C@@H]1CC2,"inconclusive [activator, single point]",
Cc1ccc(CNC(=O)CN2C(=O)C3(OCCCO3)c3ccccc32)cc1,"inconclusive [activator, single point]",
COc1ccccc1CNc1ncncc1-c1ccccc1OC,active: 10 µM,
CCN(CC)CCCC(C)n1c(-c2ccccc2)nc2c(N3CCOCC3)nc(C)nc21 (centres undefined),"inconclusive [activator, partial curve]",
COc1ccccc1N1CCN(Cc2cc(Br)c(O)c3ncccc23)CC1,inactive,
CCCCc1ccc(C2C(C#N)=C(N)SC(N)=C2C#N)s1,"inconclusive [activator, partial curve]",
CC[N+](CC)(CC)CC,"inconclusive [activator, single point]",
Cc1cc(C)c(NC(=O)c2cc3c(nc4sccn43)s2)c(C)c1,inactive,
Cc1ccccc1-c1nc(CN2CCC(C(=O)NCc3ccco3)CC2)c(C)o1,"inconclusive [activator, single point]",
CCc1ccc(S(=O)(=O)c2n[nH]n3c2nc(=O)c2ccccc23)cc1,"inconclusive [activator, partial curve]",
COc1ccc(Oc2ncc3nc(-c4ccc(OC)cc4)c(=O)n(C)c3n2)cc1,inactive,
Cc1ccc(-c2cc(C(=O)Nc3cc(C)on3)c3ccccc3n2)c(C)c1,"inconclusive [activator, full curve, poor fit]",
OC(CCN1CCOCC1)(c1ccc(Cl)cc1)C1CCCCC1 (centres undefined),active: 15.8 µM,
CCOc1cc(NC(=O)c2ccco2)c(OCC)cc1NC(=O)c1cc(OC)c(OC)c(OC)c1,"inconclusive [activator, single point]",
NC(=S)c1ccc[n+]([C@@H]2O[C@@H](COP(=O)([O-])OP(=O)(O)OC[C@@H]3O[C@@H](n4cnc5c(N)ncnc54)[C@@H](OP(=O)(O)O)[C@H]3O)[C@@H](O)[C@H]2O)c1,"inconclusive [activator, single point]",
COCCn1c(=O)c(-c2cccs2)nc2cnc(Oc3ccccc3)nc21,inactive,
Cc1cccc(NC(=O)CSc2nnc(-c3cc(C)n(-c4ccccc4)c3C)o2)c1C,"inconclusive [activator, partial curve]",
O=C(Cn1c(-c2cncs2)nc2ccccc21)NC1CCCC1,"inconclusive [activator, partial curve]",
